# Experimental data from PMC6919601, “Identification of Plasmodium dipeptidyl aminopeptidase allosteric inhibitors by high throughput screening” (PLoS ONE, 2019).
# Out of some 110,000 compounds screened, about 230 (0.21%) showed an effect of 50% or more. This is one part of the list.
# Target: DPAP1 (Plasmodium falciparum, UniProt Q8IIJ9)
# Assay: primary screen, percent inhibition; read by cleavage of a fluorogenic dipeptide substrate; higher = more effect of the substance
# Parameters: species or system P. falciparum D10 trophozoite lysates; single well
# 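Note: 30 min substrate incubation versus DMSO and 10 µM JCP410 controls.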
# DPAP1, sequence (Q8IIJ9 whole entry, looked up): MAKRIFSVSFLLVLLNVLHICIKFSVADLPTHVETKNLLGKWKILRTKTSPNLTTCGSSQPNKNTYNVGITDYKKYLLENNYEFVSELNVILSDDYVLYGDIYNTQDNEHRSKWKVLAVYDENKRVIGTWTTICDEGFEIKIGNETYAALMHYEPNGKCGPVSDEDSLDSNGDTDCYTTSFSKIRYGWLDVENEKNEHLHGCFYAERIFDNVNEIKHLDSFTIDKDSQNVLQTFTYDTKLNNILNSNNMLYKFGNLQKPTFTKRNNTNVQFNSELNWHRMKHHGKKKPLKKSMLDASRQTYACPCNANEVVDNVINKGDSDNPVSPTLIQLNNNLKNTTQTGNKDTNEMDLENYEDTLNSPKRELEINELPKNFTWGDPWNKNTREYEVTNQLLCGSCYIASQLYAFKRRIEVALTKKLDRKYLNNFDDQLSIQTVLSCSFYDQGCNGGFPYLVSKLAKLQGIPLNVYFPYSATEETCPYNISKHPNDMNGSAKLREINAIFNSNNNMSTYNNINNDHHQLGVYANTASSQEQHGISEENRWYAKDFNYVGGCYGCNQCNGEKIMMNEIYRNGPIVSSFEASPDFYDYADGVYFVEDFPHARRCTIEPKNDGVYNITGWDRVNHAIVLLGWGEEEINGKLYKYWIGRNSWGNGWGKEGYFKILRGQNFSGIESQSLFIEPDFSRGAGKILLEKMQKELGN
row,SMILES,% Inhibition @ 10 uM [%]
1,CCN(C1CCCCC1)S(=O)(=O)c1cc(OC)c(Cl)cc1OC,3.79
2,COc1ccc(N2C(=O)C3C(c4ccccc4F)OC4(C(=O)c5ccccc5C4=O)C3C2=O)cc1 (centres unmarked),3.69
3,Cn1c(=O)c2c(nc(N3CCCCC3)n2CCCNC2=NCCCC2)n(C)c1=O,-3.63
4,COc1ccc(Nc2nc3cc(C)ccc3cc2C)cc1,1.83
5,COCCNC(=O)c1cc(-c2ccc(F)cc2)on1,-5.52
6,CC(C)CCNC(=O)c1ccc(CS(=O)(=O)c2cccc(C(F)(F)F)c2)o1,-1.28
7,c1cc2c(cc1CCNC1CCCCC1)OCO2,-1.54
8,CC(=O)Nc1ccc(S(=O)(=O)Nc2ccc(C(C)C)cc2)cc1,4.67
9,Cc1ccc(CNC(=O)CCS(=O)(=O)c2cccc3nonc23)cc1,2.74
10,COc1cccc(C(=O)N(Cc2ccccc2F)C2CCS(=O)(=O)C2)c1 (centres unmarked),-8.82
11,Nc1nonc1-c1noc(C23CC4CC(CC(C4)C2)C3)n1,0.206
12,Cc1ccc(C(=N)NOC(=O)/C=C/c2ccccc2)cc1,-5
13,CCN1CCc2[nH]c3ccccc3c2C1,2.47
14,CC1(C)CC(c2ccc([N+](=O)[O-])cc2)OC(c2ccccc2)=N1 (centres unmarked),3.06
15,COC(=O)C1=CN(C2CC2)C=C(C(=O)OC)C1c1ccc(C(F)(F)F)cc1,2.56
16,CC12CC(NC(=O)N1CCc1ccccc1)c1ccccc1O2 (centres unmarked),4.14
17,CCc1nn(-c2cc(Oc3ccc(C)c(C)c3)nc(SC)n2)c(N)c1C(N)=O,0.583
18,Cc1sc2nc(-c3ccc(-c4ccc(C(=O)O)cc4)o3)nc(O)c2c1C,17.1
19,Cc1ccc(Oc2nc3ccccn3c(=O)c2/C=C(\C#N)C(=O)N2CCCCC2)cc1,0.189
20,CCc1cccc2c1NC(=O)/C2=C1\SC(N)=NC1=O,-1.79
21,NC(=O)CN(Cc1ccccc1Cl)S(=O)(=O)c1ccc(Br)cc1,-2.98
22,O=C(NC(=O)c1cccc2ccccc12)Nc1ccccc1Br,6.53
23,CCOc1ccc(/C=C/C(O)=C2/C(=O)NC34CCCCC3C2c2ccccc2O4)cc1OC (centres unmarked),0.569
24,O=C(COc1ccc2ccccc2c1Br)Nc1ccc(F)cc1,4.49
25,Cc1ccc(C(C(=O)NC2CCCC2)N(C)CCC#N)cc1 (centres unmarked),0.457
26,Cc1ccccc1/C=C1\CCc2ccccc2C1=O,1.83

row,SMILES,% Inhibition @ 10 uM [%]
1,CCN(CC)C(=O)C1CCCN(Cc2ccccc2)C1 (centres unmarked),1.48
2,Cn1nnnc1SCCNCc1ccc(-c2ccccc2)o1,1.67
3,CC1(C)CC(=O)C(C(c2ccc(Cl)cc2Cl)C2C(=O)CC(C)(C)CC2=O)C(=O)C1,5.7
4,O=[N+]([O-])c1ccc(-c2[nH]nc(-c3ccccc3)c2-c2nc3ccccc3[nH]2)cc1,1.88
5,O=C(NC1CCCCC1)c1cc(-c2cccnc2)nc2ccccc12,2.79
6,CC1CC(C)CN(C(=O)CCn2nc(-c3ccccc3)ccc2=O)C1 (centres unmarked),-0.0542
7,COc1ccc(CC(=O)N2CCCC2)cc1,-6.82
8,Cc1c(C(=O)NCc2ccc(F)cc2)sc2ncn(CC(=O)N3CCCC(C)C3)c(=O)c12 (centres unmarked),-3.23
9,Cc1cc(C)c(S(=O)(=O)Nc2cccc(Cl)c2C)c(C)c1,-3.04
10,CC(C)(C)c1ccc(C(=O)N2CCN(c3ccccc3F)CC2)cc1,0.528
11,COc1ccc(CN2CCCN(C)CC2)cc1C,-3.65
12,CCOc1ccc(-c2nc(SCC(=O)NCc3ccco3)c(-c3ccccc3)[nH]2)cc1,-1.58
13,Cc1cc(Cl)ccc1-n1c(S)nnc1CN1CCSCC1,3.48
14,c1ccc(-c2csc(Nc3ncccn3)n2)cc1,4.22
15,COc1ccc(-n2nc3c(c2NC(=O)CCc2ccccc2)CS(=O)(=O)C3)cc1,5.07
16,CCOC(=O)c1c(NC(=O)c2ccc(Cl)cc2)sc2c1CCCC2,-5.5
17,COc1ccc(CCNC(=O)c2cc(=O)n(C)c(=O)n2C)cc1OC,2.99
18,CCCCCNS(=O)(=O)c1ccc(Br)cc1,-1.77
19,CC(=O)c1cc(F)c(N2CCOCC2)cc1C,0.177
20,Cc1cccc(-c2nnc3sc(NC(=O)C(C)Oc4ccccc4)nn23)c1 (centres unmarked),1.1
21,COc1ccc(C(=O)Nc2ccc(Br)cc2F)cc1OC,-5.1
22,CCCC(C)c1c(O)n(CC)c(=S)[nH]c1=O (centres unmarked),6.41
23,O=C(O)CCCCCNc1ncnc2ccccc12,6.42
24,CS(=O)(=O)N1CCC(C(=O)NCCc2ccc(Cl)cc2)CC1,5.23
25,N#C/C(=C\c1ccc(-c2ccc(Cl)cc2)o1)c1nn(CCO)c(N)c1C#N,7.24
26,O=C(NCCC1=CCCCC1)C1CCCN1S(=O)(=O)c1cccc2nsnc12 (centres unmarked),-4.1

row,SMILES,% Inhibition @ 10 uM [%]
1,CC1(C)CC(NC(=O)c2cccs2)CC(C)(C)N1,-0.305
2,O=c1[nH]c(=O)n(-c2nc(-c3ccccc3)oc2-c2ccccc2)cc1Cl,2.45
3,O=C(/C=C/c1ccc(Cl)cc1)NC1CCCCC1,1.35
4,COc1ccc(/C=C(\NC(=O)c2ccco2)C(=O)NC(CCSC)C(=O)O)cc1 (centres unmarked),7.1
5,COc1ccccc1/C=c1\sc2nc(=O)c(C)nn2c1=O,5.12
6,CCOc1ccccc1C(=O)Nc1ccc(Oc2ccc(C(=O)O)c(C(=O)O)c2)cc1,9.79
7,CN1C(=O)/C(=C2/C(=O)Nc3ccccc32)S/C1=N/c1ccc(Cl)cc1,7.34
8,Cc1ccc(-c2cc(C(F)F)n3ncc(C(=O)NCCCn4ccnc4)c3n2)cc1,4.08
9,c1ccc2c(Cc3c[nH]c4ccccc34)c[nH]c2c1,-0.0372
10,O=C(CCS(=O)CCC(=O)NCCc1ccccc1)NCCc1ccccc1,-0.169
11,CCOc1ccc(C2C3=C(O)CCCC3=Nc3nc(SC)nn32)cc1OC (centres unmarked),0.0842
12,CCc1ccc2nc(N3CCC(C(=O)NCc4ccc5c(c4)OCO5)CC3)sc2c1,-5.51
13,COc1cc(C(=O)Nc2c3c(nn2-c2ccc(Cl)cc2)CS(=O)(=O)C3)cc(OC)c1OC,2.94
14,CCc1c(C)sc(NC(=O)c2cc(Cl)ccc2OC)c1C(N)=O,3.65
15,C=CCSc1nnc(-c2ccc(Cl)cc2Cl)o1,4.03
16,Cc1ccc(-c2cc(N)n(CC3CCCCC3)n2)cc1,0.24
17,O=C(c1ccc2ccccc2c1)N1CCN(c2ccccc2)CC1,1.64
18,CCCOc1ccc(/C=c2\sc3nc(=O)c(C)nn3c2=O)cc1,-4.93
19,Cc1ccc(C(=O)N(C)c2ccccc2)cc1,3.53
20,CC(CNC(=O)C1CCCN(S(=O)(=O)N2CCCCC2)C1)c1ccccc1 (centres unmarked),-1.09
21,CCOC(=O)c1c(/N=C/C2C(=O)CCCC2=O)sc(C)c1C,0.408
22,O=C(CN1CCCCC1)Nc1c2c(nc3c1CCC3)CCC2,-2.74
23,COc1ccc(CSc2nc3ccccc3s2)cc1,1.38
24,Cc1ccc(S(=O)(=O)NCC(c2ccccc2)N2CCN(Cc3ccc4c(c3)OCO4)CC2)cc1 (centres unmarked),-0.671
25,CCSc1cc(N2CCOCC2)nc(-c2ccccc2Cl)n1,-6.67
26,O=C(CCCNS(=O)(=O)c1ccccc1)NCc1ccco1,-4.35

row,SMILES,% Inhibition @ 10 uM [%]
1,O=C(NCc1ccccc1F)c1cc2nc(-c3cccs3)cc(C(F)(F)Cl)n2n1,-3.04
2,CCN(CC)C(=O)CN(Cc1ccccc1Cl)S(=O)(=O)c1ccc(Br)cc1,-1.09
3,O=C(Cc1ccc2sc(-c3ccccc3)nc2c1)NCc1ccccc1,-11.1
4,CCCCOc1ccc(C2C(C(=O)OCC)=C(N)OC3=C2C(=O)CCC3)cc1 (centres unmarked),-4.18
5,Clc1ccccc1N1CCN(CC2CC3C=CC2C3)CC1 (centres unmarked),-5.11
6,CCCCn1c(Oc2ccc(C(=O)OC)cc2)nc2c1c(=O)n(C)c(=O)n2C,2.17
7,CC1=C(C(=O)Nc2ccc(C)cc2)C(c2ccc(O)cc2)NC(S)=N1 (centres unmarked),-0.233
8,NS(=O)(=O)c1ccc(CCNC(=O)C2CCCN(c3ncnc4c3nc3n4CCCCC3)C2)cc1 (centres unmarked),4.83
9,O=C(Cn1cnc2c(nnn2Cc2ccc(F)cc2)c1=O)NCc1ccco1,-0.644
10,CC(C)=CCc1c2c(c3occ(-c4ccc(O)cc4)c(=O)c3c1O)C=CC(C)(C)O2,-1.25
11,Cc1ccc(S(=O)(=O)N2CCN(c3nc(C)nc4sc5c(c34)CCCC5)CC2)cc1,-19.7
12,Cc1cccc(NC(=O)Cn2cnc3ccccc3c2=O)c1C,-1.28
13,CC(C)CC(C(=O)N1CCOCC1)N1C(=O)c2cc(Cl)c(Cl)cc2C1=O (centres unmarked),0.674
14,CCOc1cc(CNC(=O)C2CCCN(c3nnc(-n4cccc4)s3)C2)cc(OCC)c1OCC (centres unmarked),-2.35
15,Cc1ccc(-c2noc(CNC(=O)c3ccc(C)cc3Cl)n2)cc1,-4.82
16,CCc1ccccc1N(CC(=O)N1CCN(C)CC1)S(C)(=O)=O,-14.4
17,c1ccc(-c2csc(-c3cccnc3)n2)cc1,-5.49
18,COc1cc(/C=C2\C(C)=C([N+](=O)[O-])CS2(=O)=O)ccc1O,4.16
19,O=C(NC1CCCCC1)C1=Cc2sc3c(c2CS1)CCCC3,14.1
20,CCOc1ccc(C(=O)NCc2ccc(Cl)cc2)cc1OCC,1.89
21,CC(C)C[C@H](NS(=O)(=O)c1ccc(-c2ccco2)cc1)C(=O)NCC#N,1.35
22,c1ccc(NCc2ccc3c(c2)OCO3)nc1,-5.51
23,CCCCNC(=S)N1CCn2cccc2C1c1cc(OC)ccc1OC (centres unmarked),8.84
